Laboratory results: the supplement of paper PMC11741623
Some of the results follow. Interaction screen of human proteins with wild-type SARS-CoV-2 proteins by split-DHFR complementation in yeast, 1 µg/mL methotrexate. Value = fitness of the pair (three or more lineages) minus that of the viral protein without a human partner, on a scale set by negative (0) and fused positive (1) controls, mean of up to three cultures; higher = more likely to interact. Active = false discovery rate below 0.05 (one-sided t-test) in at least one culture. Nearly all pairs are not hits, and differences among them are mostly noise (correlation between cultures about 0.3); most hits were seen in one culture only. Human sequences are the Swiss-Prot entries looked up by gene name; the clone may be another isoform. NSP2 values were corrected by the authors for a growth advantage. Listed are human proteins with a hit and a random twelfth of the others.

B1: C14orf1, Q9UKR5 (protein)
chain: MSRFLNVLRSWLVMVSIIAMGNTLQSFRDHTFLYEKLYTGKPNLVNGLQARTFGIWTLLSSVIRCLCAIDIHNKTLYHITLWTFLLALGHFLSELFVYGTAAPTIGVLAPLMVASFSILGMLVGLRYLEVEPVSRQKKRN
B2: FAM131B, Q86XD5 (protein)
chain: MDSTSSLHGSSLHRPSTEQTRTDFSWDGINLSMEDTTSILPKLKRNSNAYGIGALAKSSFSGISRSMKDHVTKPTAMGQGRVAHMIEWQGWGKTPAVQPQHSHESVRRDTDAYSDLSDGEKEARFLAGVMEQFAISEATLMAWSSMDGEDMSVNSTQEPLGCNYSDNYQELMDSQDALAQAPMDGWPHSYVSQGMYCLGSSDAWEASDQSLIASPATGSYLGPAFDDSQPSLHEMGPSQPASGYSALEPPPLLGGDTDWAPGVGAVDLARGPAEEEKRPLAPEEEEDAGCRDLESLSPREDPEMSTALSRKVSDVTSSGVQSFDEEEGEANN
B3: C10orf62, Q5T681 (protein)
chain: MLWVQRKRRRKETSECPSDKDKSPESHKAKNESWIKSHFSRLSEEKLALDNNASASGNATQTESGSEEVSSTVHIETFTTRHGEVGSALHRESFTSRQKTSGPSVIQEIHQESGKAPSTDEATWAAVAACTKEIDTQGRHLAHSMLQRAIAYQHSGHLESKDINQEELRALEEVEMKLQKNFLTQRENTIAGANHTHTFYGHSHHSHHGHPSHQSHSLPNRRH
B4: C3orf18, Q9UK00 (protein)
chain: MNSRTASARGWFSSRPPTSESDLEPATDGPASETTTLSPEATTFNDTRIPDAAGGTAGVGTMLLSFGIITVIGLAVALVLYIRKKKRLEKLRHQLMPMYNFDPTEEQDELEQELLEHGRDAASVQAATSVQAMQGKTTLPSQGPLQRPSRLVFTDVANAIHA
B5: CA11, O75493 (protein)
chain: MGAAARLSAPRALVLWAALGAAAHIGPAPDPEDWWSYKDNLQGNFVPGPPFWGLVNAAWSLCAVGKRQSPVDVELKRVLYDPFLPPLRLSTGGEKLRGTLYNTGRHVSFLPAPRPVVNVSGGPLLYSHRLSELRLLFGARDGAGSEHQINHQGFSAEVQLIHFNQELYGNFSAASRGPNGLAILSLFVNVASTSNPFLSRLLNRDTITRISYKNDAYFLQDLSLELLFPESFGFITYQGSLSTPPCSETVTWILIDRALNITSLQMHSLRLLSQNPPSQIFQSLSGNSRPLQPLAHRALRGNRDPRHPERRCRGPNYRLHVDGVPHGR

Target: SARS-CoV-2 E
Experiment: yeast fitness gain over the viral ORF with no human partner (scaled fitness); higher = more likely to interact
Procedure: (§1)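 Split mouse DHFR complementation in pooled diploid yeast: human ORFeome clones carry one fragment and viral ORFs the other; barcoded lineages compete in 1 µg/mL methotrexate and fitness is read by barcode sequencing in up to three cultures.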

| Binder | yeast fitness gain |
| --- | --- |
| B1 | inactive: -0.055 |
| B2 | inactive: -0.0415 |
| B3 | inactive: -0.0423 |
| B4 | inactive: -0.0628 |
| B5 | inactive: -0.11 |

Target: SARS-CoV-2 M
Experiment: as above
Procedure: as §1

| Binder | yeast fitness gain |
| --- | --- |
| B1 | inactive: -0.00998 |
| B2 | inactive: 0.0343 |
| B4 | inactive: -0.133 |
| B5 | inactive: -0.0401 |

Target: SARS-CoV-2 N
Experiment: as above
Procedure: as §1

| Binder | yeast fitness gain |
| --- | --- |
| B1 | inactive: -0.0403 |
| B2 | inactive: 0.0348 |
| B3 | inactive: 0.0248 |
| B5 | inactive: -0.101 |

Target: SARS-CoV-2 NSP1
Experiment: as above
Procedure: as §1

| Binder | yeast fitness gain |
| --- | --- |
| B1 | inactive: 0.0747 |
| B2 | inactive: 0.00542 |
| B3 | inactive: 0.0172 |
| B4 | inactive: 0.0104 |
| B5 | inactive: -0.0478 |

Target: SARS-CoV-2 NSP10
Experiment: as above
Procedure: as §1

| Binder | yeast fitness gain |
| --- | --- |
| B1 | inactive: 0.053 |
| B2 | inactive: 0.0184 |
| B3 | inactive: -0.0109 |
| B4 | inactive: -0.0477 |
| B5 | inactive: -0.00605 |

Target: SARS-CoV-2 NSP12
Experiment: as above
Procedure: as §1

| Binder | yeast fitness gain |
| --- | --- |
| B1 | inactive: -0.00422 |
| B2 | inactive: 0.0158 |
| B3 | inactive: 0.0341 |
| B4 | inactive: 0.0299 |
| B5 | inactive: 0.0357 |

Target: SARS-CoV-2 NSP13
Experiment: as above
Procedure: as §1

| Binder | yeast fitness gain |
| --- | --- |
| B1 | inactive: -0.00557 |
| B2 | inactive: 0.0406 |
| B3 | inactive: -0.0176 |
| B4 | inactive: -0.11 |
| B5 | inactive: -0.00796 |

Target: SARS-CoV-2 NSP14
Experiment: as above
Procedure: as §1

| Binder | yeast fitness gain |
| --- | --- |
| B1 | inactive: 0.0545 |
| B2 | inactive: 0.0592 |

Target: SARS-CoV-2 NSP15
Experiment: as above
Procedure: as §1

| Binder | yeast fitness gain |
| --- | --- |
| B1 | inactive: 0.0162 |
| B2 | inactive: 0.0338 |
| B3 | inactive: -0.0916 |
| B4 | inactive: 0.051 |
| B5 | inactive: 0.00199 |

Target: SARS-CoV-2 NSP16
Experiment: as above
Procedure: as §1

| Binder | yeast fitness gain |
| --- | --- |
| B1 | inactive: 0.016 |
| B2 | inactive: 0.000948 |
| B3 | inactive: 0.096 |
| B4 | inactive: 0.0444 |
| B5 | inactive: -0.0884 |

Target: SARS-CoV-2 NSP2
Experiment: as above
Procedure: as §1

| Binder | yeast fitness gain |
| --- | --- |
| B1 | inactive: -0.149 |
| B2 | inactive: -0.0948 |
| B3 | inactive: -0.241 |
| B4 | inactive: -0.049 |
| B5 | inactive: -0.0806 |

Target: SARS-CoV-2 NSP4
Experiment: as above
Procedure: as §1

| Binder | yeast fitness gain |
| --- | --- |
| B1 | inactive: 0.348 |
| B2 | inactive: -0.0574 |

Target: SARS-CoV-2 NSP5
Experiment: as above
Procedure: as §1

| Binder | yeast fitness gain |
| --- | --- |
| B1 | inactive: 0.0274 |
| B2 | inactive: 0.0125 |
| B3 | inactive: 0.0379 |
| B4 | inactive: -0.0164 |
| B5 | inactive: 0.0336 |

Target: SARS-CoV-2 NSP6
Experiment: as above
Procedure: as §1

| Binder | yeast fitness gain |
| --- | --- |
| B1 | inactive: 0.0342 |
| B2 | inactive: 0.014 |
| B3 | inactive: -0.017 |
| B4 | inactive: 0.0218 |
| B5 | inactive: 0.0928 |

Target: SARS-CoV-2 NSP7
Experiment: as above
Procedure: as §1

| Binder | yeast fitness gain |
| --- | --- |
| B1 | inactive: -0.0694 |
| B2 | inactive: 0.0461 |
| B3 | inactive: -0.00988 |
| B4 | inactive: 0.0167 |
| B5 | inactive: 0.0188 |

Target: SARS-CoV-2 NSP8
Experiment: as above
Procedure: as §1

| Binder | yeast fitness gain |
| --- | --- |
| B1 | inactive: 0.0891 |
| B2 | inactive: 0.0482 |
| B3 | inactive: -0.014 |
| B4 | inactive: 0.0988 |
| B5 | inactive: -0.01 |

Target: SARS-CoV-2 NSP9
Experiment: as above
Procedure: as §1

| Binder | yeast fitness gain |
| --- | --- |
| B1 | inactive: 0.0418 |
| B2 | inactive: 0.0516 |
| B3 | inactive: -0.0216 |

Target: SARS-CoV-2 ORF10
Experiment: as above
Procedure: as §1

| Binder | yeast fitness gain |
| --- | --- |
| B1 | inactive: 0.0352 |
| B2 | inactive: 0.00311 |
| B3 | inactive: -0.176 |
| B4 | inactive: -0.0944 |
| B5 | inactive: -0.0495 |

Target: SARS-CoV-2 ORF3A
Experiment: as above
Procedure: as §1

| Binder | yeast fitness gain |
| --- | --- |
| B1 | inactive: 0.105 |
| B2 | inactive: -0.0172 |
| B4 | inactive: 0.00176 |
| B5 | inactive: 0.145 |

Target: SARS-CoV-2 ORF3B
Experiment: as above
Procedure: as §1

| Binder | yeast fitness gain |
| --- | --- |
| B1 | inactive: 0.00318 |
| B2 | inactive: 0.0388 |
| B3 | inactive: -0.0264 |
| B4 | inactive: -0.0465 |
| B5 | inactive: 0.0446 |

Target: SARS-CoV-2 ORF6
Experiment: as above
Procedure: as §1

| Binder | yeast fitness gain |
| --- | --- |
| B1 | inactive: 0.0459 |
| B2 | inactive: -0.00371 |
| B3 | inactive: -0.0934 |
| B4 | inactive: -0.0295 |
| B5 | inactive: 0.00745 |

Target: SARS-CoV-2 ORF7A
Experiment: as above
Procedure: as §1

| Binder | yeast fitness gain |
| --- | --- |
| B1 | inactive: 0.0725 |
| B2 | inactive: -0.00813 |
| B3 | inactive: 0.0427 |
| B4 | inactive: -0.0575 |
| B5 | inactive: 0.0159 |

Target: SARS-CoV-2 ORF7B
Experiment: as above
Procedure: as §1

| Binder | yeast fitness gain |
| --- | --- |
| B1 | inactive: 0.113 |
| B2 | inactive: -0.00148 |
| B3 | inactive: 0.0074 |
| B4 | inactive: 0.0892 |
| B5 | inactive: -0.0895 |

Target: SARS-CoV-2 ORF8
Experiment: as above
Procedure: as §1

| Binder | yeast fitness gain |
| --- | --- |
| B1 | inactive: 0.038 |
| B2 | inactive: 0.0139 |
| B3 | inactive: 0.00665 |
| B4 | inactive: 0.00115 |
| B5 | inactive: 0.0331 |

Target: SARS-CoV-2 ORF9B
Experiment: as above
Procedure: as §1

| Binder | yeast fitness gain |
| --- | --- |
| B1 | inactive: 0.0296 |
| B2 | inactive: 0.0257 |
| B3 | inactive: 0.0136 |
| B4 | inactive: -0.0168 |
| B5 | inactive: -0.0378 |

Target: SARS-CoV-2 ORF9Bwu (the 73-codon ORF)
Experiment: as above
Procedure: as §1

| Binder | yeast fitness gain |
| --- | --- |
| B1 | inactive: 0.09 |
| B2 | inactive: -0.0197 |
| B3 | inactive: 0.0289 |
| B4 | inactive: 0.0254 |
| B5 | inactive: 0.0768 |

Target: SARS-CoV-2 S
Experiment: as above
Procedure: as §1

| Binder | yeast fitness gain |
| --- | --- |
| B1 | inactive: 0.00905 |
| B2 | inactive: 0.0513 |
| B3 | inactive: 0.0986 |
| B4 | inactive: 0.0087 |
| B5 | inactive: 0.0831 |
